Laboratory results reported in PubChem BioAssay AID504832 (National Center for Advancing Translational Sciences (NCATS), 2011).
About 18,000 (5.8%) of roughly 310,000 compounds were called active. Inconclusive means that the source gave no clear call. Such entries were picked first, then a sample of the others. Calls come from the whole dose curve; as a rule, active = well fitted inhibition curve with a large enough effect; inconclusive = small, poorly fitted or top-dose-only effect, or another doubt; inactive = no such curve, though single readings can be large or run the other way. Potencies of inconclusive entries are left out as doubtful fits.

Assay: Primary qHTS for delayed death inhibitors of the malarial parasite plastid, 48 hour incubation
Details: P. falciparum luciferase growth in erythrocytes; series mostly up to 28.7 µM; activity change, negative = inhibition: at the top concentration
Procedure, shortened: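 Compounds are pin-transferred into medium, infected erythrocytes (2% hematocrit, 0.1% parasitemia final) are added, and plates sit one parasite generation at 37 C in 5% CO2. Detection reagent is then added and luminescence measured.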
% is set by controls: 0 for no effect and ±100 for the full control effect; potency is the fitted concentration of half-maximal effect; tags give direction and shape of the fitted curve.

SMILES	activity change, negative = inhibition	Potency
Cc1ccc(C)c(OCC(=O)NNC(=O)CCN2CCN(c3ccccc3)CC2)c1	inactive: -25.8%	
CCn1cc(C(=O)NCc2ccc(OC)cc2)c(=O)c2ccc(C)nc21	inactive: 24.2%	
COc1ccc(N2CCN(CCCNC(=O)CC3Oc4ccc(C)cc4NC3=O)CC2)cc1 (centres undefined)		inconclusive [inhibitor, partial curve, poor fit]
Fc1cc(Br)ccc1NC(=S)Nc1cccnc1	inactive: 7.49%	
CC(C)(C)OC(=O)N[C@@H](COCc1ccccc1)C(=O)N[C@@H](CO)[C@H](O)[C@@H]1C[C@@H]1C(=O)NC1CCCCC1		inconclusive [inhibitor, single point]
CC1(C)Cc2c(cnn2-c2cccc(F)c2)C(NC(=O)c2csnn2)C1 (centres undefined)	inactive: 38.7%	
COc1ccc(C(=O)N=S2CCN(C(=O)c3ccc(Cl)cc3)CC2)cc1	inactive: -1.1%	
CCOC(=O)C1(CCc2ccccc2)CCN(Cc2ccc(NC(C)=O)cc2)CC1		inconclusive [inhibitor, single point]
CN(C(=O)COC(=O)COc1ccc(Cl)cc1Cl)c1c(N)n(Cc2ccccc2)c(=O)[nH]c1=O		inconclusive [inhibitor, partial curve, poor fit]
Cc1ccc(NC(=O)c2cc(S(=O)(=O)N3CCCCC3)ccc2N2CCOCC2)cc1F		active: 11.7 µM
COc1ccc2[nH]c(C(=O)Nc3cccc(C)n3)cc2c1	inactive: -11.4%	
CCC(C)(C)n1nnnc1C(c1cc(OC)c(OC)c(OC)c1)N1CCN(c2ccccc2)CC1 (centres undefined)		inconclusive [inhibitor, full curve, poor fit]
Brc1ccc(/C=N/Nc2ccc3ccccc3n2)cc1	inactive: 93.3%	
O=C(CSc1ccccc1)Nc1ccc(-c2nc3ccccc3[nH]2)cc1		inconclusive [inhibitor, single point]
CC(=O)Nc1sc(C)c(C)c1CN1CCN(Cc2ccccc2)CC1		inconclusive [inhibitor, full curve]
Cc1c(NC(=O)c2ccco2)cccc1-c1nc2cccnc2s1		inconclusive [inhibitor, single point]
COc1ccc(CN2C[C@H](C)[C@@H](CC(=O)NCc3ccccc3)C2=O)cc1		inconclusive [inhibitor, single point]
CC(NC(=O)c1sc2cc([N+](=O)[O-])ccc2c1Cl)C(C)(C)C (centres undefined)		inconclusive [inhibitor, partial curve, poor fit]
CC(NCC1(N2CCOCC2)CCCCC1)C(=O)N1CCc2ccccc21 (centres undefined)		inconclusive [inhibitor, partial curve, poor fit]
